{
  "source": "PubChem BioAssay AID504333",
  "about": "(National Center for Advancing Translational Sciences (NCATS), 2011)",
  "note": "Where “and” joins values, the source holds several entries; their conditions need not be identical. Identical values can stand only once. Out of some 360,000 compounds screened, about 16,000 (4.4%) were called active. This list was built around the results that the source calls inconclusive (neither active nor inactive); the mix of calls is not that of the screen. Calls follow the shape of the dose curve; as a rule, active = well fitted inhibition curve with a large enough effect; inconclusive = small, poorly fitted or top-dose-only effect; inactive = no such curve, though single readings can be large or run the other way. Potencies of inconclusive entries are doubtful fits and often do not repeat. % is scaled to controls: 0 for no effect and ±100 for the full control effect; potency is read from the fitted curve at half-maximal effect; tags tell the direction and shape of the fitted curve.",
  "data": [
    {"target": "Bromodomain adjacent to zinc finger domain protein 2B (Homo sapiens) (UniProt Q9UIF8)", "sequence (Q9UIF8 whole entry, looked up, the tested form may be a part)": "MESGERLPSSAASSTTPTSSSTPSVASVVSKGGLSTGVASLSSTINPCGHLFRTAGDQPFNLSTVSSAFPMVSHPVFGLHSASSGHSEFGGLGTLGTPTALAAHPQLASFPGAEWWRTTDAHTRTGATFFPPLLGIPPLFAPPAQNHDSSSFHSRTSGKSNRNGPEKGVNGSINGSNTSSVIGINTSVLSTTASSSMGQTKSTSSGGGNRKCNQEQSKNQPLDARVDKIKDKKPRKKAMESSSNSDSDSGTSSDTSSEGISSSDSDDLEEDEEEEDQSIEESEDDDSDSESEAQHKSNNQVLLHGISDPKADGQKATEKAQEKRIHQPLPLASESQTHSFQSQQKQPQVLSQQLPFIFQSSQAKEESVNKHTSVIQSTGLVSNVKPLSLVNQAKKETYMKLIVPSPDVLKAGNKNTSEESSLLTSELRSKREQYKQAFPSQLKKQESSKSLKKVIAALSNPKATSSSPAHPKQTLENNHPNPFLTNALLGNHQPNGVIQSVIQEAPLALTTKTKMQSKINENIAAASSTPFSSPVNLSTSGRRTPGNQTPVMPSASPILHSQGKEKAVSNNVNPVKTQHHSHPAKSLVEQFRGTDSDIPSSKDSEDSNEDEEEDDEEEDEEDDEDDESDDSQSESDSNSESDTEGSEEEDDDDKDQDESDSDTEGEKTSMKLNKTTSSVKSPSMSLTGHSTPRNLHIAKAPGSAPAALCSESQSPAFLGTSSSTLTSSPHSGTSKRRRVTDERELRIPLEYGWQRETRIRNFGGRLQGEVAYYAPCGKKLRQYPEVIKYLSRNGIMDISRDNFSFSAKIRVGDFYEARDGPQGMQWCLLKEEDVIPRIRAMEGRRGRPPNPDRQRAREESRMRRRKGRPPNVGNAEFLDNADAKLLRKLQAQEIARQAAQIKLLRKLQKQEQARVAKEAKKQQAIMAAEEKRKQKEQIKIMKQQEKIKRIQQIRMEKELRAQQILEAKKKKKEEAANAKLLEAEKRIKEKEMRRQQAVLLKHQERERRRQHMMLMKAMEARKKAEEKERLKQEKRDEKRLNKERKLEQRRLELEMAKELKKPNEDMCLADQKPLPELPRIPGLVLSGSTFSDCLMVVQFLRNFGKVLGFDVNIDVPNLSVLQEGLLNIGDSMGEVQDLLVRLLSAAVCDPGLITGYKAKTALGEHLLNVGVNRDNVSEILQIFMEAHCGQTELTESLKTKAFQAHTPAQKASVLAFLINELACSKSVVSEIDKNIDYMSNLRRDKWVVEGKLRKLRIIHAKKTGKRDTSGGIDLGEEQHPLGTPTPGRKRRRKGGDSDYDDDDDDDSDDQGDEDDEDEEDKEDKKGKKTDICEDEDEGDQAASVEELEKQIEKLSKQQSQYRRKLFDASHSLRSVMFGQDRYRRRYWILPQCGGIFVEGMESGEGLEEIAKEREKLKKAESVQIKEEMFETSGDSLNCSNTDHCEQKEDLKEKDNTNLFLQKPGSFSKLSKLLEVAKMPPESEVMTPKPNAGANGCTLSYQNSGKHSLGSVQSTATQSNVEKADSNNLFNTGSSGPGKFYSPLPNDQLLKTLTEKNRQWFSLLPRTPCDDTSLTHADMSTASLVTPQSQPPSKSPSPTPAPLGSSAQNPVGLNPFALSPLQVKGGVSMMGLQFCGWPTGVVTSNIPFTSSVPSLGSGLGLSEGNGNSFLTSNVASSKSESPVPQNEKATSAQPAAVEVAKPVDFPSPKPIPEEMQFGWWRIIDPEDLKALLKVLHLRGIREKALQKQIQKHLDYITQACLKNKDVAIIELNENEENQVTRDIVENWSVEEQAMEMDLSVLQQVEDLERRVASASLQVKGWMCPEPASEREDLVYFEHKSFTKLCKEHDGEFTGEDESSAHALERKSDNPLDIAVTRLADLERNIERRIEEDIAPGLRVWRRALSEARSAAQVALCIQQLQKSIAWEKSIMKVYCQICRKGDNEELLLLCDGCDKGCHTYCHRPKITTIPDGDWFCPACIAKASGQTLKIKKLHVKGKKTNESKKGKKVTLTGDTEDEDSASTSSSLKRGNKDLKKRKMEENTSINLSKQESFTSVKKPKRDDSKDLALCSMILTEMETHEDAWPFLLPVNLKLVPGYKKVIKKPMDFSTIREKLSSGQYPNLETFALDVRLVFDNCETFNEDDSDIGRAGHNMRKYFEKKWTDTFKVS", "assay": "qHTS Assay for Inhibitors of BAZ2B; also: nearly all actives have a fitted effect of over 60% in size", "conditions": "AlphaScreen BAZ2B-H3K14Ac peptide displacement; activity change, negative = inhibition: at 114 µM (top of the series)", "method_in_brief": "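BAZ2B 50 nM plus b-H3(5-23)K14Ac 50 nM, PBS pH 7.4/0.01% Tween-20, 30 min RT; compound added (max 110 uM), 30 min RT; streptavidin donor/Ni-chelate acceptor beads 10 ug/mL final, 20 min dark; AlphaScreen read.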", "values": [
      {"smiles": "O=C(NCc1ccc(Cl)cc1)c1cnc(N2CCCCC2)c2ccccc12", "activity change, negative = inhibition": "inactive: -5.37%"},
      {"smiles": "CCc1ccc(O)c(CNCCNCc2cc(CC)ccc2O)c1", "Potency": "inconclusive: 35.5 µM [inhibitor, partial curve]"},
      {"smiles": "S=c1[nH]nc(-c2ccco2)n1/N=C/c1ccccc1Cl", "activity change, negative = inhibition": "inactive: 1.37%"},
      {"smiles": "CC1=NOC(=O)/C1=C/c1ccc(O)c(Cl)c1", "Potency": "active: 50.1 µM"},
      {"smiles": "Cc1ccccc1-n1nc2c(c1NC(=O)c1c(-c3ccccc3Cl)noc1C)CSC2", "activity change, negative = inhibition": "inactive: -8.09%"},
      {"smiles": "COc1cc(CNCCO)cc(Cl)c1OCc1ccc(Cl)cc1Cl", "Potency": "inconclusive: 56.2 µM [inhibitor, partial curve]"},
      {"smiles": "CN(C(=O)c1cc(-n2cnnc2)ccc1Cl)c1ccccc1", "activity change, negative = inhibition": "inactive: 6.67%"},
      {"smiles": "Nn1c(SCC(=O)Nc2ccc(OC(F)F)cc2)nnc(Cc2ccccc2)c1=O", "activity change, negative = inhibition": "inactive: 2.96%"},
      {"smiles": "CCN(CC)c1ccc(C(=O)OCC(=O)Nc2cc(C)on2)cc1", "activity change, negative = inhibition": "inactive: 8%"},
      {"smiles": "CCN(c1ccccc1)S(=O)(=O)c1nnc(NC(=O)c2cccs2)s1", "Potency": "inconclusive: 79.4 µM [inhibitor, partial curve]"},
      {"smiles": "COc1cc(C2c3c([nH]c(=O)[nH]c3=O)Nc3ccc4ccccc4c32)ccc1O", "note": "(stereo not given)", "Potency": "inconclusive: 79.4 µM [inhibitor, single point]"},
      {"smiles": "O=[N+]([O-])c1ccc(CN2CCN(c3nc4ccccc4s3)CC2)cc1", "Potency": "inconclusive: 2.82 µM [inhibitor, full curve, poor fit]"},
      {"smiles": "CCCCC1=CC2=C(c3ccco3)C(=O)C(C)(OC(=O)c3ccc(OC)cc3)C(=O)C2=CN1CC(C)C", "note": "(stereo not given)", "Potency": "inconclusive: 14.1 µM [inhibitor, partial curve]"},
      {"smiles": "CC(C)NC(=O)c1ccc2c(c1)N(CC(=O)Nc1ccccc1F)C(=O)C(C)(C)O2", "Potency": "inconclusive: 89.1 µM [inhibitor, single point]"},
      {"smiles": "COc1cc(/C=C/C(=O)c2cccc([N+](=O)[O-])c2)cc(OC)c1OC", "Potency": "inconclusive: 35.5 µM [inhibitor, partial curve]"},
      {"smiles": "O=C(CSc1ccc(-c2ccccn2)nn1)NCc1ccccc1", "Potency": "active: 17.8 µM"},
      {"smiles": "Cc1ccc(C(=O)O)cc1-c1ccc(/C=C2/NC(=O)N(c3ccccc3)C2=O)o1", "Potency": "active: 31.6 µM"},
      {"smiles": "Cc1ccccc1N/N=C/c1sc(=O)n(Cc2cccc(C(=O)O)c2)c1Cl", "Potency": "active: 44.7 µM"},
      {"smiles": "CN(C)S(=O)(=O)c1ccc(Cl)c(NC(=O)CSc2nnnn2-c2ccc(O)cc2)c1", "Potency": "inconclusive: 89.1 µM [inhibitor, single point]"},
      {"smiles": "CCOC(=O)CC(NS(=O)(=O)c1ccc2[nH]c3c(c2c1)CCCC3)c1ccccc1Cl", "note": "(stereo not given)", "Potency": "active: 35.5 µM"},
      {"smiles": "CC(=O)Nc1ccc(OC(=O)c2ccc(Br)c([N+](=O)[O-])c2)cc1", "Potency": "inconclusive: 70.8 µM [inhibitor, single point]"},
      {"smiles": "CCCC[C@]12Cc3c(ccc4ccccc34)C(O1)C1=C(O2)C(=O)c2ccccc2C1=O", "Potency": "inconclusive: 11.2 µM [inhibitor, partial curve]"},
      {"smiles": "Cc1ccc2cc(C=C(C#N)C#N)c(N3CCCCC3)nc2c1", "Potency": "inconclusive: 39.8 µM [inhibitor, partial curve]"},
      {"smiles": "Cc1ccc(Nc2c(-c3c[nH]c4ccccc34)nc3cc(C)ccn23)cc1", "Potency": "inconclusive: 11.2 µM [inhibitor, full curve]"},
      {"smiles": "CCCN1C(=O)S/C(=C\\c2ccc(N3CCOCC3)cc2C)C1=O", "Potency": "inconclusive: 2.51 µM [inhibitor, full curve, poor fit]"},
      {"smiles": "COc1cc(OC)c(OC)cc1/C=C/c1nc2cc3ccccc3cc2c(=O)n1-c1ccc(Cl)cc1", "Potency": "inconclusive: 22.4 µM [inhibitor, full curve]"},
      {"smiles": "CC(=O)CCc1oc2ccc(NC(C)=O)cc2c1-c1ccc(C)o1", "Potency": "inconclusive: 89.1 µM [inhibitor, single point]"},
      {"smiles": "CCc1nnc2c3ccccc3nc(Nc3ccc(C(C)=O)cc3)n12", "activity change, negative = inhibition": "inactive: 6.92% [at 57.1 µM]"},
      {"smiles": "COc1ccc(CN2C(=NC(=O)C3CCCCC3)SC3CS(=O)(=O)CC32)cc1", "note": "(stereo not given)", "activity change, negative = inhibition": "inactive: -12.8%"},
      {"smiles": "O=C(Nc1ccccc1)c1nnsc1S(=O)(=O)c1ccc(Cl)cc1", "Potency": "active: 44.7 µM"},
      {"smiles": "O=C(CSc1ccc(-c2ccccn2)nn1)NCc1ccc(Cl)cc1", "Potency": "active: 14.1 µM"},
      {"smiles": "COc1ccc(OCC(O)CN(CC(O)COc2ccc(OC)cc2)c2cccc(O)c2)cc1", "note": "(stereo not given)", "Potency": "active: 44.7 µM"},
      {"smiles": "COc1cc(NS(=O)(=O)c2ccc(NC(=S)NC(=O)C3CCCC3)cc2)nc(OC)n1", "Potency": "inconclusive: 89.1 µM [inhibitor, single point]"},
      {"smiles": "C=CCN=C1N[C@@H](c2cccc(C(F)(F)F)c2)C(C(=O)OC)=C(C)N1CC", "Potency": "inconclusive: 100 µM [inhibitor, single point] and inconclusive: 79.4 µM [inhibitor, single point]"},
      {"smiles": "CCN(CC)CCN1C(=O)C(O)=C(C(=O)c2cccs2)C1c1ccccn1", "note": "(stereo not given)", "Potency": "active: 50.1 µM"},
      {"smiles": "COC(=O)/C(C#N)=C/c1c(N2CCN(c3ccccc3)CC2)nc2ccccn2c1=O", "Potency": "inconclusive: 39.8 µM [inhibitor, full curve]"},
      {"smiles": "CCS(=O)(=O)N1CCN(CC(=O)NC2CCCCC2)CC1", "activity change, negative = inhibition": "inactive: -22%"},
      {"smiles": "O=C(CSc1nnnn1C1CCCCC1)N1c2ccccc2Sc2ccccc21", "activity change, negative = inhibition": "inactive: 3.75%"},
      {"smiles": "COc1cc(CNn2c(C)n[nH]c2=S)cc(Br)c1OCc1ccc(F)cc1", "Potency": "inconclusive: 0.631 µM [inhibitor, full curve, poor fit]"},
      {"smiles": "COC(=O)C1CCCN1C(=O)C1CCCN1C(=O)CNC(=O)OCc1ccccc1", "note": "(stereo not given)", "activity change, negative = inhibition": "inactive: 1.11%"},
      {"smiles": "Cc1c(C(=O)N2CCOCC2)cc(C(C)(C)C)n1-c1ccccc1", "Potency": "inconclusive: 70.8 µM [inhibitor, single point]"},
      {"smiles": "CC(C)[C@H](NC(=O)N1CCn2c1nc1ccccc12)C(=O)NC1CCCCC1", "Potency": "inconclusive: 89.1 µM [inhibitor, single point]"},
      {"smiles": "CCn1c(C(=O)NCCc2ccc(OC)c(OC)c2)cc2sc(Cl)cc21", "Potency": "inconclusive: 31.6 µM [inhibitor, partial curve]"},
      {"smiles": "COc1ccc(NC2c3ccccc3C(=O)N2Cc2ccc3c(c2)OCO3)cc1", "note": "(stereo not given)", "Potency": "active: 50.1 µM"},
      {"smiles": "COc1cc([N+](=O)[O-])cc(/C=N/NC(=O)c2cccnc2)c1O", "Potency": "active: 17.8 µM"},
      {"smiles": "Cc1ccc(OCCN(C)C)c([N+](=O)[O-])c1", "Potency": "inconclusive: 89.1 µM [inhibitor, single point]"},
      {"smiles": "O=C(c1ccccc1)N1CCN(c2ccc(NCc3ccc4c(c3)OCO4)cc2)CC1", "Potency": "active: 35.5 µM"},
      {"smiles": "O=C(/C=C/c1ccc(F)cc1)N1CCCc2ccccc21", "Potency": "inconclusive: 3.98 µM [inhibitor, single point]"},
      {"smiles": "Cc1cccc(NC(=S)NCc2ccccn2)c1", "activity change, negative = inhibition": "inactive: -29.4%"},
      {"smiles": "O=C(CSc1ccccc1)N1CCc2c([nH]c3ccccc23)C1c1ccc(F)cc1", "note": "(stereo not given)", "Potency": "inconclusive: 25.1 µM [inhibitor, full curve]"},
      {"smiles": "c1ccc2oc(SCc3nc4ccccc4s3)nc2c1", "activity change, negative = inhibition": "inactive: 108%"},
      {"smiles": "CCOC(=O)c1ccc(NC(=O)c2c(-c3c(F)cccc3Cl)noc2C)cc1", "activity change, negative = inhibition": "inactive: -11.4%"},
      {"smiles": "Cc1cccc(N2CCN(c3ncnc4c3nc3n4CCCCC3)CC2)c1C", "activity change, negative = inhibition": "inactive: -14.5%"},
      {"smiles": "Clc1cc2cccnc2c2ccccc12", "activity change, negative = inhibition": "inactive: 63.1%"},
      {"smiles": "Cn1c(C(=O)NCCN2CCN(Cc3ccccc3)CC2)cc2c(=O)n(C)c3ccccc3c21", "activity change, negative = inhibition": "inactive: 1.22%"},
      {"smiles": "CN(Cc1ccccc1)C(=O)c1ccccc1N(C)S(=O)(=O)c1ccccc1", "activity change, negative = inhibition": "inactive: -6.24%"},
      {"smiles": "COc1ccc(OC)c(CNc2c(C=O)c(=O)[nH]c3ccccc23)c1", "Potency": "inconclusive: 70.8 µM [inhibitor, single point]"},
      {"smiles": "O=C1N=C(N2CCc3ccccc3C2)S/C1=C\\c1cccc(O)c1", "Potency": "inconclusive: 63.1 µM [inhibitor, partial curve]"},
      {"smiles": "CC(=O)c1ccc(N2CCN(c3ncnc4c3c(-c3ccccc3)cn4-c3cccc(C)c3)CC2)cc1", "Potency": "inconclusive: 20 µM [inhibitor, full curve]"},
      {"smiles": "CCOC(=O)C1CCCN(C(=O)CCn2nnnc2CN2CCOCC2)C1", "note": "(stereo not given)", "activity change, negative = inhibition": "inactive: 0.48%"},
      {"smiles": "Cc1ccc(-c2csc3nc[nH]c(=O)c23)cc1C", "activity change, negative = inhibition": "inactive: -17.6%"},
      {"smiles": "Cc1cc(C)c2sc(N(CCCN(C)C)C(=O)c3ccc(Br)s3)nc2c1", "Potency": "active: 50.1 µM"},
      {"smiles": "Cc1ccn2c(=O)c(C(=O)O)cnc2c1", "Potency": "inconclusive: 39.8 µM [inhibitor, single point]"},
      {"smiles": "COc1cc(C(CC(=O)NCc2ccc(F)cc2)N2Cc3ccccc3C2=O)cc(OC)c1OC", "note": "(stereo not given)", "activity change, negative = inhibition": "inactive: -7.89%"},
      {"smiles": "COc1ccccc1CNC(=O)C1CCCN(c2nc3ccccc3n3cccc23)C1", "note": "(stereo not given)", "activity change, negative = inhibition": "inactive: -13.3%"},
      {"smiles": "Nc1nnc(CC(=O)N/N=C/c2cc([N+](=O)[O-])cc(Br)c2O)s1", "Potency": "active: 50.1 µM"},
      {"smiles": "COc1ccc(Cl)cc1C(=O)Nc1sc2c(c1C(=O)OC(C)C)CCCC2", "activity change, negative = inhibition": "inactive: 8.32%"},
      {"smiles": "CS(=O)(=O)C1=NSC2=NC(=O)/C(=C\\c3cccn3-c3ccc(Cl)cc3)C(=N)N21", "Potency": "active: 39.8 µM"},
      {"smiles": "Cc1nn(Cc2ccc(F)cc2)c2sc(C(=O)Nc3ccc(N4CCOCC4)cc3N3CCOCC3)cc12", "Potency": "active: 39.8 µM"},
      {"smiles": "COCCN(C(C)=O)c1nnc(-c2ccccn2)s1", "Potency": "active: 56.2 µM"},
      {"smiles": "N#Cc1nc(-c2ccc(F)cc2)oc1N1CCCCC1", "Potency": "inconclusive: 50.1 µM [inhibitor, partial curve]"},
      {"smiles": "CCc1ccc(NCc2cc3cc4c(cc3n(CC(=O)Nc3ccc(C)cc3)c2=O)OCO4)cc1", "Potency": "inconclusive: 70.8 µM [inhibitor, single point]"},
      {"smiles": "CCCCc1cc(=O)oc2cc(C)cc(OCC(=O)NC(Cc3ccc(Cl)cc3)C(=O)O)c12", "note": "(stereo not given)", "activity change, negative = inhibition": "inactive: -34%"},
      {"smiles": "Cc1cc(C(=O)NCc2ccc3c(c2)OCO3)ccc1[N+](=O)[O-]", "Potency": "inconclusive: 89.1 µM [inhibitor, single point]"},
      {"smiles": "COc1ccccc1N1CCN(C(=O)c2oc3c(c2C)C(=O)CC(C)(C)C3)CC1", "Potency": "inconclusive: 89.1 µM [inhibitor, single point]"}
    ]}
  ]
}
